Measured values published in PubChem BioAssay AID652104 (National Center for Advancing Translational Sciences (NCATS), 2013).
In all, about 410,000 compounds went through this assay and about 7,200 (1.8%) were called active. The shares of active, inactive and inconclusive entries below differ from those in the screen. Calls come from the whole dose curve; as a rule, active = well fitted activation curve with a large enough effect; inconclusive = small, poorly fitted or top-dose-only effect, or another doubt; inactive = no such curve, though single readings can be large or run the other way. Potencies of inconclusive entries are left out as doubtful fits.

Assay: qHTS of TDP-43 Inhibitors; note: nearly all actives have a fitted effect of over 50% in size; for growth rescue (activation): % of control where 0% means no effect
Conditions: TDP-43 expressing yeast growth rescue, BacTiter-Glo, 24 h; growth rescue (activation): at 46.1 µM (top of the series) unless noted
Procedure, shortened: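 Luminescence from BacTiter-Glo reports growth of TDP-43-expressing yeast after 24 hr at 30 deg C with compound. Cells were raffinose-pregrown to mid-log, then seeded in galactose medium at OD600=0.02.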
Potency is the fitted concentration of half-maximal effect; tags give direction and shape of the fitted curve.

| Structure (SMILES) | Potency | growth rescue (activation) |
| --- | --- | --- |
| Cc1ccc(Nc2ccc([N+](=O)[O-])nc2[N+](=O)[O-])cc1 | inconclusive [activator, partial curve] | – |
| O=C(c1ccccc1Cl)N(Cc1ccco1)Cc1ccco1 | – | inactive: -4.89% |
| CC(C)(C)OC(=O)C[C@@H]1C/C=C\C[C@H](CC(=O)NCCO)C(=O)N2CCC[C@@H]2COC1=O | inconclusive [activator, partial curve] | – |
| CCOC(=O)c1ccc(NC(=O)c2cccc3c2C(=O)N(CC2CCCO2)C3)cc1 (stereo not drawn) | active: 22.4 µM | – |
| Cc1ccc(NC(=O)CC2SC3=NCCN3C2=O)cc1 (stereo not drawn) | inconclusive [activator, single point] | – |
| COc1ccc(C(=O)NCC2OCCc3ccccc32)cc1 (stereo not drawn) | inconclusive [activator, single point] | – |
| Cc1nn(C)c(C(=O)N2CCc3ccccc32)c1Cl | inconclusive [activator, single point] | – |
| COc1ccc(CCN2CC(C(=O)NCc3cccc4[nH]ccc34)CCC2=O)cc1 (stereo not drawn) | – | inactive: 3.57% |
| COc1ccc(NC(=O)N(CCC(C)C)C(C)c2ccccn2)c(OC)c1 (stereo not drawn) | inconclusive [activator, single point] | – |
| N#Cc1ccc(-c2nc3ccc(Br)cn3c2Cc2cccc(Cl)c2)cc1 | inconclusive [activator, partial curve] | – |
| CCN(CC)S(=O)(=O)c1ccc(N(C)Cc2ccc(C(F)(F)F)cc2)nc1 | inconclusive [activator, single point] | – |
| CN1CCN(c2oc(/C=C/c3ccc(F)cc3)nc2C#N)CC1 | – | inactive: 11.1% |
| CC(C)S(=O)(=O)c1oc(-c2ccc(F)cc2)nc1S(=O)(=O)c1ccccc1 | active: 12.6 µM | – |
| O=C(Nc1cccc(Br)c1)c1ccccc1-c1ccccc1 | active: 15.8 µM | – |
| CC1CCN(C(=O)COC(=O)/C=C/c2ccc(Br)o2)CC1 | inconclusive [activator, partial curve] | – |
| COC(=O)C(=Nc1ccccc1)/C(C(=O)C(=O)N(C)c1ccccc1)=C(\O)c1ccc(Cl)cc1 | inconclusive [activator, partial curve] | – |
| Cc1nc(-n2nc(C)c(Cc3ccc4c(c3)OCO4)c2C)sc1C(=O)Nc1cccc(Cl)c1 | – | inactive: 1.29% |
| O=c1c2cc(Br)ccc2nc2n1CCCCC2 | inconclusive [activator, single point] | – |
| N#C/C(=C\c1cccc(Br)c1)C(=O)N1CCCCC1 | – | inconclusive: -86.7% [activator] |
| O=C(CCCOc1ccc(Cl)cc1Cl)NCc1ccncc1 | – | inactive: 3.7% |
| COc1ccc(-c2ccc(=O)n(Cc3ccccc3)n2)cc1 | inconclusive [activator, single point] | – |
| Cc1ccccc1S(=O)(=O)Cc1ccc(C(=O)N2CCN(c3ccc(F)cc3)CC2)o1 | inconclusive [activator, single point] | – |
| Cc1ccc(F)cc1C(=O)N1CCCC(c2cc(C(=O)NCc3ccccc3)no2)C1 (stereo not drawn) | – | inactive: 0% |

| Structure (SMILES) | Potency | growth rescue (activation) |
| --- | --- | --- |
| COc1ccc(-c2cc(-c3cc(F)ccc3O)[nH]n2)cc1OC | inconclusive [activator, partial curve] | – |
| O=C(Cc1cccc(NC(=O)C2CCN(S(=O)(=O)c3cccc([N+](=O)[O-])c3)CC2)c1)Nc1cccc(C(=O)N2CCCCC2)c1 | inconclusive [activator, single point] | – |
| CC1(C)Cc2c(C#N)c(N3CCN(C(=O)c4ccccc4Cl)CC3)nc(-c3ccco3)c2CS1 | – | inactive: 22.1% |
| CCOc1ccc(-c2n[nH]c(C)c2Oc2ccccc2OC)c(O)c1 | – | inactive: -4.57% |
| COc1ccc(OC)c(C(=O)c2c(C)oc3cc([N+](=O)[O-])c(O)c([N+](=O)[O-])c23)c1 | inconclusive [activator, single point] | – |
| O=C(c1ccco1)N1CCN(c2ncnc3scc(-c4ccccc4)c23)CC1 | inconclusive [activator, single point] | – |
| COc1ccc2nc(NC(=O)c3nc(S(=O)(=O)Cc4ccccc4)ncc3Cl)sc2c1 | inconclusive [activator, partial curve] | – |
| CSc1cccc(NC(=O)CC(c2cccs2)N2Cc3ccccc3C2=O)c1 (stereo not drawn) | – | inactive: -5% |
| Cc1noc(C)c1COc1ccc(C(=O)N(C)CCOc2ccccc2)cc1 | inconclusive [activator, partial curve] | – |
| Cc1cc(C(=O)Nc2ccccc2N2CCOCC2)ccc1[N+](=O)[O-] | inconclusive [activator, partial curve] | – |
| Cn1c(-c2sccc2OCc2ccc(Cl)cc2Cl)n[nH]c1=S | inconclusive [activator, partial curve] | – |
| Cc1ccc(OCC(=O)NCC(c2ccc(Cl)cc2)N2CCCCC2)cc1 (stereo not drawn) | inconclusive [activator, partial curve] | – |
| COC(=O)c1ccc2nc(-c3ccc(F)cc3)c(Cc3cccc(Cl)c3)n2c1 | inconclusive [activator, partial curve, poor fit] | – |
| Cn1c(=O)c2cccnc2c(=O)n1C | – | inactive: 3.79% |
| CCOc1ccc(N(CC(=O)Nc2cc(C)ccc2C)S(=O)(=O)c2c(C)[nH]c(=O)[nH]c2=O)cc1 | inactive | – |
| COc1ccc(NC(=O)N2CCc3c(sc4c3CCCC4)C2c2ccccc2OC)cc1 (stereo not drawn) | – | inactive: 29.7% |
| CCOc1ccc(S(=O)(=O)Nc2ccc(C(=O)NCC3CCCO3)cc2)cc1 (stereo not drawn) | – | inactive: 9.04% |
| CCCc1nnc(NC(=O)c2cccc(OC)c2)s1 | inconclusive [activator, single point] | – |
| COc1ccc(-c2nc3scc(CCNS(=O)(=O)c4ccccc4F)n3n2)cc1 | active: 22.4 µM | – |
| CC(Oc1ccc(F)cc1)C(=O)Nc1nc(-c2ccc(F)cc2)ns1 (stereo not drawn) | inconclusive [activator, full curve] | – |
| Cc1ccc(-n2nnnc2Sc2nc([N+](=O)[O-])nn2C)cc1 | inconclusive [activator, partial curve] | – |
| Cc1csc(SCc2nnc(-c3ccc(Cl)cc3)o2)n1 | inconclusive [activator, partial curve] | – |
| Cc1cc(C)c(C(CC(=O)c2cccs2)C(C#N)C#N)c(C)c1 (stereo not drawn) | active: 12.6 µM | – |

| Structure (SMILES) | Potency | growth rescue (activation) |
| --- | --- | --- |
| CCOC(=O)Cn1c(=O)n(CC2CCCO2)c2nc(-c3ccccc3F)nc(C(N)=O)c21 (stereo not drawn) | – | inactive: 27% |
| Cc1ccc(Cn2cc(C(=O)c3ccc(F)cc3)c(=O)c3cc4c(cc32)OCO4)cc1 | inconclusive [activator, partial curve] | – |
| COc1cccc(CSc2nnc(-c3ccc(F)cc3)o2)c1 | inconclusive [activator, single point] | – |
| COc1ccc(-n2c(C)c(C(C)=O)c3cc(OC(=O)c4ccc(C)cc4)ccc32)cc1 | – | inactive: -0.503% |
| COc1ccc(C2C3=C(NCCN=C3c3ccccc3)C(=O)N2c2ccccc2)c(OC)c1 (stereo not drawn) | – | inactive: -11.4% [at 9.22 µM] |
| CCNC(=S)NNC(=O)CCc1nc2cc(Cl)ccc2n(Cc2ccccc2)c1=O | inconclusive [activator, partial curve] | – |
| Cc1cccc(C(=O)O/N=C(\N)c2ccccn2)c1 | active: 12.6 µM | – |
| CCC1=Nc2cc(C(=O)NCC(C)c3ccccc3)ccc2Sc2ccc(C)cc21 (stereo not drawn) | inconclusive [activator, full curve, poor fit] | – |
| O=C(NCc1ccco1)c1ccccc1NS(=O)(=O)c1ccc2c(c1)OCCO2 | – | inactive: 13.4% |
| CCOc1ccc(NC(=S)Nc2ccc(Br)cc2Cl)cc1 | inconclusive [activator, partial curve] | – |
| CCC1CN(C(=O)C2CCN(S(=O)(=O)c3c(C)noc3/C=C/c3ccccc3F)CC2)c2cc(Cl)ccc2O1 (stereo not drawn) | inconclusive [activator, partial curve, poor fit] | – |
| Cc1cccc(NC(=O)CCC(=O)OCC(=O)c2ccc(Oc3ccc([N+](=O)[O-])cc3)cc2)c1 | – | inconclusive: -84.7% [activator] |
| CCOc1ccccc1N1CCN(C(=O)c2cc3cc(OC)ccc3[nH]2)CC1 | inconclusive [activator, single point] | – |
| CCOC(=O)Cn1nc(-c2ccccc2)c2cnc3ccc(OCC)cc3c21 | inconclusive [activator, partial curve] | – |
| COc1cccc(CN(C)C(=O)c2cc(COc3ccc4ncccc4c3)on2)c1 | inconclusive [activator, single point] | – |
| Cc1ccc(S(=O)(=O)N2CCCC(C)C2)cc1 (stereo not drawn) | inconclusive [activator, partial curve] | – |
| c1ccc(CNc2ncnc3sccc23)cc1 | inconclusive [activator, single point] | – |
| CCOc1ccc(/C=C/c2nc(C#N)c(N3CCCCC3)o2)cc1 | inconclusive [activator, partial curve] | – |
| CCOc1ccc(NS(=O)(=O)c2ccc(-c3cnc(C4CC4)o3)cc2)cc1 | active: 35.5 µM | – |
| COc1cc(C)c(NC(c2ccccc2)c2ccccc2)cc1OC | inconclusive [activator, single point] | – |
| COC(=O)C1=CO[C@@H](O[C@@H]2OC(CO)[C@@H](O)[C@@H](O)[C@@H]2O)C2C1CC[C@]2(C)O (stereo partly drawn) | inconclusive [activator, full curve, poor fit] | – |
| CC(=O)Nc1ccc(-c2nnc(SCc3c(C)cc(C)cc3C)n2C)cc1 | inconclusive [activator, partial curve] | – |
